{
  "source": "PubChem BioAssay AID488969",
  "about": "(Vanderbilt High Throughput Screening Facility, 2010)",
  "note": "Over roughly 110,000 compounds, “z-score” has its median near -0.1; the highest 2% begin near 2. This is one part of the list. Active and inactive are the calls of the source.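 The calls were made as follows: active = z-score in the third read window above 3 or below -3; inactive = the rest.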",
  "data": [
    {"molecular_target": "Metabotropic glutamate receptor 8 (Rattus norvegicus) (UniProt P70579)", "sequence (P70579 whole entry, looked up)": "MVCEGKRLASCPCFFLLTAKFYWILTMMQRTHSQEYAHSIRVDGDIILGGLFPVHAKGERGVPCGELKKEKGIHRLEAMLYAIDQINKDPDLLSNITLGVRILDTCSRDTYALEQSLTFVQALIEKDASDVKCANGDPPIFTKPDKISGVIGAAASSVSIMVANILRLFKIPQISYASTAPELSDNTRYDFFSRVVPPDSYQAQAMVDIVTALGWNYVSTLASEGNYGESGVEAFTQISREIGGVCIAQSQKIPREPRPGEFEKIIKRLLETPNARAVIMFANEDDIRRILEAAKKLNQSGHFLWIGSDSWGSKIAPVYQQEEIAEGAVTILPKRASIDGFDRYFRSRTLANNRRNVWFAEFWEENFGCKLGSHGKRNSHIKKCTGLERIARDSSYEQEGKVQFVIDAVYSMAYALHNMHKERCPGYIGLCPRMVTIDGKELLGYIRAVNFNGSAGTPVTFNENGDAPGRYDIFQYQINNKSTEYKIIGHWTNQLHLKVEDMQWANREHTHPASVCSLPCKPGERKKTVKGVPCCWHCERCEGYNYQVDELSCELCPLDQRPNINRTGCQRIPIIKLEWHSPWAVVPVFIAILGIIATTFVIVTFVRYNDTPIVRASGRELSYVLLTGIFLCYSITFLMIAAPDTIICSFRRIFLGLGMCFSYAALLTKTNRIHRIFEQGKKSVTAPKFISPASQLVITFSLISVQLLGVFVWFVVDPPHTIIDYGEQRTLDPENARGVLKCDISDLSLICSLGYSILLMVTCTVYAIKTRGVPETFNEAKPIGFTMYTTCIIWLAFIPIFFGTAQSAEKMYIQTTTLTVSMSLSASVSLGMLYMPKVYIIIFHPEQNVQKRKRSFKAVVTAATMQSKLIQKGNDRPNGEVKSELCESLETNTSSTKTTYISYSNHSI", "assay": "mGluR8 Gi/Go-coupled signaling modulation – cell-based, rat, thallium flux, HTS, primary screen (AID 488969)", "details": "HEK293 rat mGluR8, GIRK (G protein-gated inwardly rectifying potassium channel) thallium flux, FluoZin2; at 10 µM; stronger effect = higher value; submaximal glutamate (EC20) added with thallium", "values": [
      {"smiles": "CN=c1scc(-c2cccs2)n1/N=C/c1ccccc1O", "z-score": 0.0374},
      {"smiles": "C=C(C)C1CC=C(C)/C(=N/NC(=O)COc2ccccc2Cl)C1", "note": "(centres undefined)", "z-score": "active: 12.4"},
      {"smiles": "CNC(=S)N(Cc1ccco1)Cc1cc2cc3c(cc2[nH]c1=O)OCCO3", "z-score": 0.0341},
      {"smiles": "CC1CCC(C(C)C)C2=C1C(C#N)(C#N)C(C#N)(C#N)C(c1ccccc1)N2", "note": "(centres undefined)", "z-score": -0.206},
      {"smiles": "Cc1ccc(C2(CCNS(=O)(=O)c3ccc(C)cc3)CCOC(C(C)C)C2)cc1", "note": "(centres undefined)", "z-score": -0.0103},
      {"smiles": "O=C(/C=C/c1cccc([N+](=O)[O-])c1)NCc1ccco1", "z-score": -0.205},
      {"smiles": "C=CCn1c(COc2cccc(C)c2)nnc1SCn1nnc2ccccc2c1=O", "z-score": -0.197},
      {"smiles": "O=C(N/N=C/c1c[nH]c2ccccc12)c1cc(-c2ccc3ccccc3c2)n[nH]1", "z-score": 0.114},
      {"smiles": "CCCNC(=S)N1CCN(CC)CC1", "z-score": 0.0876},
      {"smiles": "CC(NC(=O)C1CCCCC1)C(=O)NC1=NCCS1", "note": "(centres undefined)", "z-score": 0.00509},
      {"smiles": "CC(C)(C)c1nnc(NC(=O)CN2C(=O)C3C4C=CC(C4)C3C2=O)s1", "note": "(centres undefined)", "z-score": -0.271},
      {"smiles": "CCn1c(SCC(=O)N2CCC(C(N)=O)(N3CCCCC3)CC2)nc2ccccc2c1=O", "z-score": -1.2},
      {"smiles": "O=C(CN(c1ccccn1)S(=O)(=O)c1ccccc1)N/N=C/c1cccc([N+](=O)[O-])c1", "z-score": -0.26},
      {"smiles": "CCCCn1nc2cc(C(=O)NCCc3cccs3)ccc2c1OCC", "z-score": -0.71},
      {"smiles": "CCN(CC)S(=O)(=O)c1ccc(C(=O)NCc2n[nH]c(=S)n2-c2ccccc2OC)cc1", "z-score": -0.0139},
      {"smiles": "COc1ccc(NS(=O)(=O)c2ccc(SC)cc2)c(OC)c1", "z-score": 0.216},
      {"smiles": "CCc1[nH]nc2c1C1(CCN(C(=O)OCc3ccccc3)CC1)C(C#N)=C(N)O2", "z-score": -0.249},
      {"smiles": "COc1ccc(C(=O)c2nc3c(n2O)CCCCC3)cc1", "z-score": -0.0919},
      {"smiles": "COc1ccccc1CCNC(=O)c1ccoc1C", "z-score": 0.238},
      {"smiles": "COC(=O)Cn1c2[n+](c3ccccc31)CC(O)CS2", "note": "(centres undefined)", "z-score": -0.0277},
      {"smiles": "COc1ccc(S(=O)(=O)N2CCC(CN3C(=O)c4cccc5cccc(c45)C3=O)CC2)cc1", "z-score": -0.138},
      {"smiles": "CCn1cc(CNC(=O)c2cc(-c3cc(OC)ccc3OC)nc3ccccc23)c(C)n1", "z-score": -0.258},
      {"smiles": "O=C(/C=C/c1ccccc1Cl)Nc1ccncc1", "z-score": -0.162},
      {"smiles": "COc1ccc(S(=O)(=O)N2CCN(C(=O)NCc3ccccc3)CC2)cc1", "z-score": -0.0685},
      {"smiles": "COc1ccc(N(CC(=O)N2CCN(c3ccccc3)CC2)S(=O)(=O)c2c(C)noc2C)cc1", "z-score": -0.151},
      {"smiles": "O=C(Cn1nc(C(F)F)cc1C1CC1)NCCC1=CCCCC1", "z-score": 0.00364},
      {"smiles": "COc1cc(/C=N/N=C(/C(=O)c2ccccc2)c2ccccc2)cc(OC)c1O", "z-score": -0.457},
      {"smiles": "O=c1cc(CO)oc(C(Nc2ccccn2)c2cccc(F)c2)c1O", "note": "(centres undefined)", "z-score": -0.241},
      {"smiles": "CCn1c(SCC(=O)NCc2ccccc2)nnc1-c1ccccc1O", "z-score": 0.0869}
    ]}
  ]
}
